# Laboratory results from PMC4336329 (PLoS ONE, 2015).
# Among all 310,000 compounds or so, about 2,200 (0.71%) showed an effect of 50% or more. The effect is printed as a negative number. Some of the results follow.
# Molecular target: human ether-à-go-go-related gene (hERG) potassium channel (human, UniProt Q12809)
# Test: primary screen, population patch clamp on CHO cells stably expressing hERG
# human ether-à-go-go-related gene (hERG) potassium channel, sequence (Q12809 whole entry, looked up): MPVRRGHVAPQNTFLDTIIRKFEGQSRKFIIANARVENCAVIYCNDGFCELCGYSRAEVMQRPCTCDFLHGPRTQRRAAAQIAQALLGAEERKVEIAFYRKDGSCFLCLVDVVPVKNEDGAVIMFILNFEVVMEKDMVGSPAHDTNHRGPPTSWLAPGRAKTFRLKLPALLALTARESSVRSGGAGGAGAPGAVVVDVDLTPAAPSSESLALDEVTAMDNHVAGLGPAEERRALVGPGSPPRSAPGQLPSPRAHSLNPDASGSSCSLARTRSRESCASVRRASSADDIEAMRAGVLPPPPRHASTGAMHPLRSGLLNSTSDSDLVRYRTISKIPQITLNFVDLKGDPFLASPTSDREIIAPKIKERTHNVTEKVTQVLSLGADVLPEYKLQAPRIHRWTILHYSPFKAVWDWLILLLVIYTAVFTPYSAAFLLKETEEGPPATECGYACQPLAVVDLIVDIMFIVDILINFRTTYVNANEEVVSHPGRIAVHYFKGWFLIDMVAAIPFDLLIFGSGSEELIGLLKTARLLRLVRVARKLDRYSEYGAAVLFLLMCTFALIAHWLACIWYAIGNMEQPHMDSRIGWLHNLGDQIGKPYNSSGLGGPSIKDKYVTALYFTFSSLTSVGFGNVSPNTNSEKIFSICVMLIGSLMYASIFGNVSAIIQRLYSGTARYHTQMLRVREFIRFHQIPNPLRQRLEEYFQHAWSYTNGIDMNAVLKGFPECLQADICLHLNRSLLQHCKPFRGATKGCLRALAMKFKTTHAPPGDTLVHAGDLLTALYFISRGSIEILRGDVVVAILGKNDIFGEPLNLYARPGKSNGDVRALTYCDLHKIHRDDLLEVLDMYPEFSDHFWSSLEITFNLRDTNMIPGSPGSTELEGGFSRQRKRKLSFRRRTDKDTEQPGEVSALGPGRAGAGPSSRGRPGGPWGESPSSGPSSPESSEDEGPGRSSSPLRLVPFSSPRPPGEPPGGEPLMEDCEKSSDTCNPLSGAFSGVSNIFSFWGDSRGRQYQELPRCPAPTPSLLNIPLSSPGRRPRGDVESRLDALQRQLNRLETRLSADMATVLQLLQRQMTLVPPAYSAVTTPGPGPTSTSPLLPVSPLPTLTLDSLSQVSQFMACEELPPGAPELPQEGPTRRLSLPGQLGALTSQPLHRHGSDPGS
row,Structure (SMILES),"hERG current change (%, negative = inhibition) at 1uM"
1,CCn1c(SCC(=O)N2CCCC2)nnc1-c1ccc(N)cc1,11.2%
2,COCCn1c(SCC(=O)Nc2ccc(Cl)cn2)nnc1-c1ccncc1,-13.8%
3,Cn1c(=O)cc(SCC(=O)NCC2COc3ccccc3O2)c2ccccc21 (stereo not shown),12%
4,S=c1nc(C2COc3ccccc3O2)[nH][nH]1 (stereo not shown),18.6%
5,Cc1c([N+](=O)[O-])cc(C(=O)Nc2ccc(NC(=O)c3ccco3)cc2)cc1[N+](=O)[O-],7.93%
6,CCCn1c(C(C)NC(=O)c2ccccc2)n[nH]c1=S (stereo not shown),14.7%
7,CCOC(=O)C(C)n1cnc2c(nnn2Cc2ccc(C)cc2)c1=O (stereo not shown),11.6%
8,O=C(O)c1cc(-c2ccc(Cl)cc2)n(-c2ccc(F)cc2)n1,6.76%
9,CCN(CC(=O)NCc1ccc(Cl)cc1)Cc1cc(=O)n2ccsc2n1,3.02%
10,Nc1nc(NCC(=O)O)nc(N2CCCCCC2)c1[N+](=O)[O-],10.3%
11,COc1ccc(C(=O)NCC(=O)N2CCCCC2)cc1OC,14.8%
12,Br.O=C(Cn1c(NCCCO)nc2ccccc21)c1ccc(Br)cc1,3.02%
13,CC(=O)Nc1ccc(NC(=O)C(NS(=O)(=O)c2cccc3nsnc23)C(C)C)cc1 (stereo not shown),20.4%
14,CCc1nonc1NC(=O)c1oc2ccc(F)cc2c1C,15.5%
15,COc1ccc(/C=C(\C#N)c2nc3ccc(C)cc3[nH]2)cc1Oc1ccc(C(F)(F)F)cc1[N+](=O)[O-],11.5%
16,Cc1cccc(C)c1NC(=O)/C(C#N)=C/c1ccc(-c2ccc(C(=O)O)cc2)o1,6.45%
17,CC1(C)CC(C(N)=S)CCO1 (stereo not shown),18.8%
18,COc1cccc(NC(=O)CN(C)C(=O)c2cc3c(s2)CCC3)c1,17.9%
19,C=CCOc1ccc(C(=O)n2cc(C(=O)OC)c3ccccc32)cc1,10.6%
20,CC1CC(=O)Nc2ccccc2N1C(=O)Cn1cnc2ccccc2c1=O (stereo not shown),2.26%
21,CCCCCCCn1c(C)nnc1-c1cnn(C)c1N,6.07%
22,COc1cc(-c2nc3cccc(C)n3c2NCC2CCCO2)ccc1O (stereo not shown),-4.27%
23,COc1ccc(-c2c(N)n[nH]c2C)cc1OC,15.7%

row,Structure (SMILES),"hERG current change (%, negative = inhibition) at 1uM"
1,CN(C)c1ccc(C2OC(=O)C(C)(C)C(=O)C2(C)C)cc1 (stereo not shown),14.8%
2,CCN(CC)C(=O)c1sc(NC(=O)c2ccc(C)c([N+](=O)[O-])c2)c(C#N)c1C,17.1%
3,COC(=O)c1ccc(CSc2ncnc3c2nnn3-c2ccc(F)cc2)o1,9.31%
4,CCn1ncc(/C=N\NC(=O)c2cc(-c3ccc(C)cc3C)nc3ccccc23)c1C,9.35%
5,COc1cc(NC(=O)Cc2ccc(OC)c(S(=O)(=O)N3CCOCC3)c2)c(OC)cc1Cl,5.86%
6,Cc1ccc(N2C(=O)C3C4CC(=O)C(c5ccccc54)C3C2=O)cc1C (stereo not shown),4.29%
7,COc1ccc(C(=O)NC2CCCCCC2)cc1OC1CCN(C(C)=O)CC1,7.33%
8,COc1ccc(/C=C/C(=O)CCC(=O)O)cc1,9.25%
9,Cc1cccc(C2N=C(N)Nc3nc4ccccc4n32)c1 (stereo not shown),-0.58%
10,Cc1nn(-c2ccccc2)c(C)c1S(=O)(=O)O,6.07%
11,CCCCONc1ncnc2nonc12,11.2%
12,CCN(CC)C(=O)Cc1cn(C)c2ccccc12,10.6%
13,COc1ncc(-c2ccc3c(c2)S(=O)(=O)c2cccc(C(=O)NCc4ccco4)c2C3=O)cn1,11.8%
14,NC(=O)c1cc(S(=O)(=O)NCCCc2ccco2)cs1,8.58%
15,CC(=O)NCCC(=O)NCc1ccc(F)cc1,-14.2%
16,COCCn1c(=NC(=O)CCS(=O)(=O)c2ccccc2)sc2cc(C)ccc21,7.44%
17,Cc1nc(=O)c(-c2ccccc2)c(C)n1-c1ccc(C(=O)O)cc1,14.7%
18,O=C(c1cc2cc(Br)ccc2oc1=O)N1CCCC1,7.59%
19,Cc1onc(C(=O)N2CCN(Cc3ccccc3)CC2)c1[N+](=O)[O-],-0.669%
20,O=C(NCCCN1CCOCC1)C1CCN(S(=O)(=O)c2c(Cl)cccc2Cl)CC1,10.4%
21,O=C(CCc1ccccc1)Nc1cc(Cl)ccc1O,6.49%
22,Cn1c(O)c(N=Nc2ccc(S(=O)(=O)N3CCOCC3)cc2)c(=O)n(C)c1=O,19.9%
23,Cc1cccc(CC2CC(=O)N(c3ccccc3)C2=O)c1 (stereo not shown),4.5%

row,Structure (SMILES),"hERG current change (%, negative = inhibition) at 1uM"
1,COc1ccc(NC(=O)CS(=O)CC(=O)Nc2ccc(F)cc2F)cc1 (stereo not shown),-2.61%
2,Cc1cc(-c2nc(C)c(-c3nnc(SCC(=O)Nc4cc(Cl)cc(Cl)c4)n3C)s2)no1,6.47%
3,O=C(Nc1ccc(S(=O)(=O)N2CCCC2)cc1)c1c(F)cccc1F,15.3%
4,CCOC(=O)c1c(CN2CCOCC2)n(C)c2cc(Br)c(O)c(CN(C)C)c12,-3.12%
5,Cc1cc(C(=O)NCc2ccco2)no1,8.74%
6,COC(=O)c1sc2nc(SCc3ccccc3C)n(N)c(=O)c2c1C,14.9%
7,O=S(=O)(c1cccc(-c2nnc(SC(F)F)n2-c2ccccc2)c1)N1CCCCC1,-1.08%
8,O=C(O)c1cnc2[nH]c3ccccc3n2c1=O,-5.36%
9,O=C(NC1CC1)c1cc2c(F)cccc2s1,-13.7%
10,CCOC(=O)c1ccc(NC(=O)c2ccccc2[N+](=O)[O-])cc1,6.64%
11,Fc1ccc(CN2CCN(C(c3ccccc3)c3ccccc3)CC2)cc1.O=C(O)C(=O)O,14.3%
12,CC(C)NC(=O)N1c2ccccc2Sc2ccccc21,12.7%
13,CCCN1CCC(NC(=O)CCc2nnc(Cc3cc(OC)ccc3OC)o2)CC1,11.5%
14,CN1CCc2c(sc(N)c2C(=O)O)C1,15.8%
15,CC(C)(C)NC(=O)C(c1ccncc1)N(Cc1ccc(F)cc1)C(=O)c1ccc(-c2ccccc2)[nH]1 (stereo not shown),14.7%
16,O=C(NCN1CCN(c2ccccc2F)CC1)c1cccnc1,1.69%
17,CC(C)OC(=O)CSc1nnc(CNc2nc(-c3ccccc3)cs2)n1C,-6.82%
18,Cc1ccc(/C=C2\C(=N)N3N=C(CC(=O)N4CCOCC4)SC3=NC2=O)o1,14.8%
19,Cc1sc2nc3c4ccccc4c(NCc4ccco4)nn3c(=O)c2c1C,-13.8%
20,OCCC1CN(Cc2cnc(-c3ccccc3)s2)CCN1C1CCCCC1 (stereo not shown),-4.58%
21,O=C(NNC1=Nc2cccc3cccc1c23)c1ccccc1Br,9.23%
22,O=c1c2ccccc2[nH]c(=S)n1C1CCCCC1,19.6%
23,CC12CCC(=O)N1C(C(=O)Nc1nc(-c3ccc(F)c(F)c3)cs1)CS2 (stereo not shown),14.7%

row,Structure (SMILES),"hERG current change (%, negative = inhibition) at 1uM"
1,N/C(Cc1cccs1)=N\OC(=O)COc1ccc(Cl)cc1Cl,-3.39%
2,O=C(Cn1nc(Cl)nc1Cl)c1ccccc1,8.44%
3,Cc1nc2sc3c(c2c(=O)n1NC(=O)CCBr)CCCC3,5.89%
4,O=S(=O)(NC1=NCCC1)c1cccs1,15.4%
5,CCCOc1ccc(C(=O)CCN2CCCCC2)cc1.Cl,-2.88%
6,CCOC(=O)c1cc(C)sc1/N=C/C1C(=O)CC(C)(C)CC1=O,5.33%
7,CCOC(=O)N1CCC(Nc2c(NCCCN(C)Cc3ccccc3)c(=O)c2=O)CC1,14.9%
8,COc1cccc(NC(=O)CN(C)CC(=O)Nc2ccc(Cl)cc2[N+](=O)[O-])c1,8.48%
9,Brc1cccc(Cn2c(-c3cncs3)nc3ccccc32)c1,3.49%
10,CCOC(=O)c1ccc(NC(=O)c2cc(S(=O)(=O)N3CCOCC3)ccc2O)cc1,-1.61%
11,CCOC(=O)c1cnc2c(CC)cccc2c1NCCN1CCOCC1,-14.1%
12,Cc1nn(-c2cc(N3CCCCC3)ccc2[N+](=O)[O-])c(=O)c2ccccc12,-7.72%
13,CSc1ccccc1OCc1cc(C(=O)NCCN2CCCC(O)C2)no1 (stereo not shown),-12.6%
14,Cn1cnnc1SCC(=O)NCc1ccccc1,13%
15,C=C(CC)C(=O)c1ccc(OCC(=O)O)c(Cl)c1Cl,10.9%
16,CNC(=O)Cn1nc(-c2ccc(C)c(S(=O)(=O)N(C)C)c2)c2ccccc2c1=O,3.97%
17,Cc1nc(-c2cn[nH]c2-c2ccc(O)cc2O)cs1,7.1%
18,Cc1ccc(OCc2n[nH]c(=S)n2-c2ccc(Br)cc2)cc1,17.9%
19,COc1ccc(/C=C(/NC(=O)c2ccccc2)C(=O)NC(Cc2c[nH]c3ccccc23)C(=O)O)cc1 (stereo not shown),11.7%
20,Cc1cc(C)c2c(-c3ccc(F)cc3)c(C#N)c(=O)n(C)c2n1,16.2%
21,CCCC(C)C(=O)Nc1ccc(F)c(Cl)c1 (stereo not shown),-4.1%
22,COc1ccnc(NCc2cccc(C(F)(F)F)c2)c1C#N,12.1%
